For part of its entries the source gives two or more results. The other results are left out here. There may be further records. The values listed for one entry are repeated measurements (runs, samples, wells, individuals or studies).
System: 415267-285-R-J2-PDC complex spheroid viability
Assay: Anticancer human tumor 415267-285-R-J2-PDC patient-derived breast carcinoma cell line growth inhibition [POLQ]
Conditions: stronger effect = lower value
Method: Multicellular complex tumor spheroid response to Polymerase (POL) inhibitors (novobiocin, ART-558, RP6685) in combination with a variety of drugs and investigational agents in selected tumor cell lines
The POL inhibitors (novobiocin, ART-558, and RP6685) were evaluated both individually and in combination with standard of care and investigational anticancer small molecules within a complex spheroid model of solid tumors. . Complex spheroids include a stromal component modeled by human endothelial cells (HUVEC) and fibroblasts modeled by human mesenchymal stem cells (MSCs). The concentration ranges selected for each drug and investigational agent were based upon clinically achievable concentrations if the clinical Cmax of the agent was known.
Compounds. The drugs and investigational agents: novobiocin (NSC847541), ART-558 (NSC835418), RP-6685 (NSC848927), peposertib (NSC802822), ceralasertib (NSC780249), elimusertib (NSC800525), camonsertib (NSC841442), AZD-1390 (NSC803789), olaparib (NSC753686), talazoparib (NSC767125), rucaparib (NSC756644), sotorasib (NSC818433), MRTX-1133 (NSC836407), SN-38 (NSC673596), topotecan (NSC609699), epotoside (NSC141540), doxorubicin (NSC123127), gemcitabine (NSC613327), 5-fluorouracil (NSC19893), paclitaxel (NSC125973), vemurafenib (NSC761431), MSA-2 (NSC828583), SN-011 (NSC837082), adavosertib (NSC754352), prexasertib (NSC758257), carboplatin (NSC241240) and oxaliplatin (NSC266046), were obtained from the National Cancer Institute (NCI) Developmental Therapeutics Program Chemical Repository (21). The FDA-approved anticancer drug set is available from the Developmental Therapeutics Program at https://dtp.cancer.gov/organization/dscb/obtaining/. […] If the clinical Cmax for an agent had not been determined, the highest concentration tested was 10 microM, except for SN-38, which was tested at a high concentration of 1 microM. […]
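Note: luminescence used as stand-in measure of viable cells; spheroids exposed to compounds for one week before readout; 100% = DMSO vehicle control viability.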

SMILES: COc1cccc(OCCCN)c1-c1cc(Nc2cnc(C#N)cn2)n[nH]1
- viability, T/C (compound alone 0.01 µM): 8.47%, 35.3%, 30.7%

SMILES: Nc1ccn(C2OC(CO)C(O)C2(F)F)c(=O)n1 (stereo not drawn)
- viability, T/C (compound alone 0.0316 µM): 6.23%, 7.91%, 34.5%

SMILES: COC1C(OC(N)=O)C(O)C(Oc2ccc3c(O)c(NC(=O)c4ccc(O)c(CC=C(C)C)c4)c(=O)oc3c2C)OC1(C)C (stereo not drawn)
- viability, T/C (compound alone 1 µM): 99.7, 96.1, 95.4, 117, 98.1, 103, 91.9, 107, 95.8, 111, 91.5, 97.2, 109%

From PubChem BioAssay AID1963847 (Molecular Pharmacology Branch, DTP, NCI, 2024)
